Assay results as given in the supplement of paper PMC3334620.
The full ranking holds about 33,000 sequences; the median of “E-score (-0.5 to 0.5)” is about -0.012, and the highest 2% start at about 0.29. This is one part of the list.

molecular target: T1, Ybr033w (UniProt P38073); assay: PBM E-score (8-mer binding enrichment) (E-score (-0.5 to 0.5)); higher = stronger / more preferred TF binding; most listed sequences are background and not binding sites; conditions: protein concentration: 200 nM; construct: GST-full length
T1 sequence: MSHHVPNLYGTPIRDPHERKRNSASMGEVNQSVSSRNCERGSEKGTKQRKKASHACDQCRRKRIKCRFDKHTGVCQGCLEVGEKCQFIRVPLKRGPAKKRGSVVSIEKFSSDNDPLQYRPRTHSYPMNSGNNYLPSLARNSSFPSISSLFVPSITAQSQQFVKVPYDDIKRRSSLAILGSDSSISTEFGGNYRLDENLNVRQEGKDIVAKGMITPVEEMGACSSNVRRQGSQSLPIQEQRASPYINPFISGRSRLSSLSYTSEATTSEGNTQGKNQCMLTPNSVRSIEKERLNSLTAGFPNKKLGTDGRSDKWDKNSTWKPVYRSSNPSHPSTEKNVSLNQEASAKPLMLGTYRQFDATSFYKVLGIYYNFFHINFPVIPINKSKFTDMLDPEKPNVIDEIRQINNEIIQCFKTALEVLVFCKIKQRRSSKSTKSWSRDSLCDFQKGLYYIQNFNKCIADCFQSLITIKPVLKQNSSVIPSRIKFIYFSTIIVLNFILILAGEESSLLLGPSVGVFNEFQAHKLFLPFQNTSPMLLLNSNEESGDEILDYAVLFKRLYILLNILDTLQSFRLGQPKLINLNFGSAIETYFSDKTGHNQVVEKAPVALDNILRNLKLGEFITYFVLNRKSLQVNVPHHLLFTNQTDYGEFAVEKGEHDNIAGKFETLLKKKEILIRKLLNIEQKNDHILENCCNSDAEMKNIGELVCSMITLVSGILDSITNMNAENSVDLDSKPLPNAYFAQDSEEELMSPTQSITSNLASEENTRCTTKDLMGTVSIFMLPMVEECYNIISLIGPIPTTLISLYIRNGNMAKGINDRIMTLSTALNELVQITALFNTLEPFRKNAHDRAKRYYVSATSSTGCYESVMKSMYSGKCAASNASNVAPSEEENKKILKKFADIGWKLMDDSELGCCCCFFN
Summary of the method: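 PURExpress in vitro transcription/translation supplied GST-tagged yeast transcription factors, either full-length or DNA-binding domain. Applied at about 100-200 nM to universal all-10-mer Agilent arrays double-stranded by primer extension, the bound protein was detected with fluorescent anti-GST. E-scores, modified Wilcoxon-Mann-Whitney statistics, were given by the Universal PBM Analysis Suite to ungapped eight-base words pooled with their reverse complements after masliner normalisation.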

Sequence	PBM E-score
GGGCCGGA	-0.17
GGTGCAAA	-0.00124
ACCAGACG	-0.0483
ATACCAGA	0.191
CCGAAGCG	-0.199
AAGGGAAA	0.112
ACGAGGCC	-0.265
GCTTTCAC	-0.168
ACTTCCAC	-0.104
ATGGTGTG	0.0876
AACGGGGG	-0.309
AGGTACCA	-0.145
AGATCAAC	0.0509
ATGTTGCG	0.0418
CATACTAG	0.157
ATCTAAGC	0.0351
CCTGTATC	0.0676
ATCCAACA	0.0678
GCCGAGTA	-0.121
ACTGTGCG	-0.00496
ACCTCCGA	-0.0443
ATTGTGTG	0.122
ATCTACCC	0.0482
CCATTACG	-0.14
GCCCTCCA	-0.175

Sequence	PBM E-score
ACCGGTGA	-0.244
CACCCCCG	-0.201
CCCACACG	-0.149
AGGTTTTG	0.023
ACAACTGA	0.144
ACAACTCT	0.241
GAAGCTAC	-0.0159
AAATACCA	0.199
TGTCCTAA	0.053
AAAGCAAT	0.16
AACACAAC	0.116
GGATGGCA	0.0893
TACGTATA	0.115
AAGGGACA	-0.121
GGCTTACA	0.0224
AGAGTATC	-0.049
GGGGCGAA	-0.149
GTACCGTA	-0.14
ACTGACCT	0.0147
CAAACGTA	0.12
CTCTATCA	-0.0434
GATTGGGC	-0.0587
GGAAAACA	0.17
ATGTTTTG	0.216
CAGTACGG	-0.00053

Sequence	PBM E-score
AGGCTACC	-0.279
CGCTATAC	-0.172
GCTTGCCC	-0.303
GCGTCAGC	-0.15
GTCTCAGA	-0.218
CGATAAAC	-0.148
GATTAATA	0.328
TAAAACAA	0.177
GGGGAATA	-0.0146
ATAACGAC	0.193
CCAACGAC	-0.185
ACCAGACC	-0.0442
GAGAATTA	0.238
AGAATCCA	-0.0591
ACCTCCGG	-0.0279
GATTAGTA	0.0492
CGACTCGC	-0.0745
AAGATATT	0.258
GTATGTTA	0.148
AGCTCCCC	-0.281
ACATATGT	-0.046
ACAGCGGC	-0.215
CGATCTGA	-0.0469
ACGGTGTC	-0.126
CTCTCCAG	-0.325

Sequence	PBM E-score
GACCGCTC	-0.184
CCGGCTTA	-0.0887
AAACCCGT	-0.104
CCCTACAG	-0.215
GATTCAGA	0.161
ACGCTTCA	-0.209
ATCTTCAC	0.154
GCGCGATA	0.181
AGGACAAA	0.17
TGCAGAAA	0.123
AGTAGGTG	-0.107
TCGGGACA	-0.00946
CATCTATC	0.0429
GACCCTGA	-0.199
AAACCGCA	-0.147
CCCGGTTC	-0.0468
CACGTTCA	-0.153
AAATTGCA	0.146
GTCTACGA	-0.116
AGTTGTCC	0.0101
ATTGAGTC	-0.0117
GTCTAACA	-0.194
CGGAACGA	0.0838
CAACTCTC	0.0899
CCAATCCC	0.0151

Sequence	PBM E-score
ACTATCTC	0.206
CGTATGTC	-0.0971
AAGTTAAC	0.224
GTTTCTAA	0.168
CAGTGCAA	0.178
GTTTACTA	0.267
GGCGTTTA	-0.127
TACACCCA	-0.00079
CAAATTTG	-0.0425
ACCAGTCA	0.00132
CACCATAC	0.159
GTTGACGA	-0.0199
ATAAATTA	0.375
TTAATGAA	0.195
CTATCAAC	0.181
GCTTCCCA	-0.191
AAAGCTTC	-0.0172
ATATCGAT	0.238
CTATGCTA	0.0835
ATGTTGAC	0.17
CAGGGGGA	-0.31
GAGTCTAC	-0.0896
CCTACACG	-0.17
CCTTGCGC	-0.0912
CCAAAGGG	-0.17

Sequence	PBM E-score
ACAGCAGA	-0.0922
GGACATCC	-0.0509
ACATCTTA	0.101
AATTTCAC	0.214
ACTCGTCT	0.11
GCGGAGCA	-0.0369
AAGCACTC	-0.0754
CGCATAGC	-0.193
ACACTGTC	-0.158
ACGAAGAT	-0.0249
TCGGGGAA	0.0246
CCCACGAC	-0.239
CCAACTCC	0.0716
AATTGAGC	-0.0899
CGGGTTAG	-0.265
AAGGTCAG	-0.0273
AGTCCGCG	-0.253
CGAGGGAA	-0.0841
CTATTGGC	-0.0572
GGGAACAA	0.381
GAGTGAGC	-0.125
ATCATGTC	0.133
ATAATAGG	0.226
ACTGTACT	-0.162
CAGAGGGG	-0.251

Sequence	PBM E-score
CTCTATTA	0.152
AAGGCTAG	0.0657
ACCCTGTA	-0.0511
CGTTGGCC	-0.196
ATCGTTAA	0.24
CTATTTTA	0.252
GTAATGTA	0.0536
CCTGGTAC	-0.0749
AGTGGTCC	-0.141
CCAACAAG	0.0698
CGTTACAG	-0.0249
AGGGTTCA	0.0464
GTTACACA	0.00412
TACCGACA	-0.00649
AAATGGTC	0.262
CGCATTCC	-0.275
AAAGCCAT	0.162
ATCTCAGC	-0.00333
AACATCAG	0.173
CACAGGGC	-0.172
CACGGCAA	0.0311
CGTGCCCA	-0.0995
